Article PMC4336329 (PLoS ONE, 2015)
The whole screen tested about 310,000 compounds, of which about 14,000 (4.5%) showed an effect of 50% or more. The effect is printed as a negative number. The list shows a part of the results.

Each molecule was assayed against human ether-à-go-go-related gene (hERG) potassium channel (human, UniProt Q12809) (assay: primary screen, population patch clamp on CHO cells stably expressing hERG).
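Note: peak tail current of the secondary pulse compared with the same well before compound.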

Sequence of human ether-à-go-go-related gene (hERG) potassium channel (Q12809 whole entry, looked up): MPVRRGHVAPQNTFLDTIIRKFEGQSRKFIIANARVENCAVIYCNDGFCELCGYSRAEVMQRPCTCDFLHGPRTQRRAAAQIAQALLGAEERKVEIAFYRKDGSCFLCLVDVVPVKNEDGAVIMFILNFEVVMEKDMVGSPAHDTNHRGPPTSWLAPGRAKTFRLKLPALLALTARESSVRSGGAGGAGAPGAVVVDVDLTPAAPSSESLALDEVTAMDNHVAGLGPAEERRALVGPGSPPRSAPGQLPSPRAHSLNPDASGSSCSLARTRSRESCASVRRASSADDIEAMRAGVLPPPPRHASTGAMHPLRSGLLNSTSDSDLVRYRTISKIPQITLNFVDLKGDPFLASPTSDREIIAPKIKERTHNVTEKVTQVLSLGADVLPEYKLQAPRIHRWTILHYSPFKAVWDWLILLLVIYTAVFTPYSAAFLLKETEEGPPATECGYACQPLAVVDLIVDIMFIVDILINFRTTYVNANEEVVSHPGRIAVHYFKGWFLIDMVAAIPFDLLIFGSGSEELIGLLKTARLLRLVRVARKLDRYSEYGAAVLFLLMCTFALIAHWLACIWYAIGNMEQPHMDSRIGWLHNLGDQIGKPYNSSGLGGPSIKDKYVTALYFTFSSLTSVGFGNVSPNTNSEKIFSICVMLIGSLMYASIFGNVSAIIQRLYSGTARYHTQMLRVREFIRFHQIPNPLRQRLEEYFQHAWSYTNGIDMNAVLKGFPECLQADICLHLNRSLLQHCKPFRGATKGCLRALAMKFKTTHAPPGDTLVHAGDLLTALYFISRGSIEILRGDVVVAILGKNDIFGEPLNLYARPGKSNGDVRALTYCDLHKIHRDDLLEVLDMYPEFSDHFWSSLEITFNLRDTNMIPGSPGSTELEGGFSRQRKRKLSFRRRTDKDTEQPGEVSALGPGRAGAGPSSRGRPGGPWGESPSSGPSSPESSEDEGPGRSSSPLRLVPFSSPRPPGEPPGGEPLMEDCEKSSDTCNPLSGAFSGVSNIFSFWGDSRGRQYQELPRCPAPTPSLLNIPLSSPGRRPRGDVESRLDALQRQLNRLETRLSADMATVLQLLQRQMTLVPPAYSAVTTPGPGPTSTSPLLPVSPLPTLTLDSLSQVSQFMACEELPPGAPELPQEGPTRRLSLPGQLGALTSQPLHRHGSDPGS

Row | SMILES | hERG current change (%, negative = inhibition) at 10uM
1 | O=C(c1ccccc1)c1ccc(Cn2cc(-c3ccccc3)nn2)cc1 | -15.1%
2 | C/C(=N\NC(=O)Cc1ccc(Cl)cc1)c1ccc(F)cc1 | 10.6%
3 | COc1ccc(S(=O)(=O)N2CC(C(=O)O)Oc3ccc(CC(=O)O)cc32)cc1 (stereo not shown) | 18.2%
4 | CC(C)COc1ccc(Cc2cnc(N)nc2N)cc1 | -14.4%
5 | CC(=O)Nc1ccc(S(=O)(=O)c2ccc(C)cc2)cc1 | 10.3%
6 | Cc1no[n+]([O-])c1COc1cccc(/C=C2\N=C(c3ccccc3)OC2=O)c1 | 21.6%
7 | CC(O)CNc1nc2sc3c(c2c(=O)n1Cc1ccco1)CCCCC3 (stereo not shown) | 4.61%
8 | CC1CCN(CCOc2cccc(Br)c2)CC1.O=C(O)C(=O)O | -20.3%
9 | CCN1CCN(C(=O)NC2CC(=O)N(c3ccc(OC)cc3)C2)CC1 (stereo not shown) | 6.8%
10 | CCOc1cc(N2CCOCC2)c(OCC)cc1NC(=O)c1cccc(N(C)C)c1 | -22.1%
11 | COC(=O)N1C(=O)[C@@](c2ccccc2)(C2CCCCC2)N1C(=O)OC | 6.94%
12 | O=C(CN1C(=O)NC2(CCOc3ccccc32)C1=O)Nc1cccc(Cl)c1 (stereo not shown) | 26.5%
13 | CC(C)CNC(=O)NC(=O)COC(=O)c1ccccc1Sc1ccc(C(F)(F)F)cc1[N+](=O)[O-] | 11.1%
14 | CCCn1ncc(CN2CCC(C(=O)Nc3cccc(-c4cccc(F)c4)c3)CC2)c1C | -71.7%
15 | CCc1ccc(NC(=O)Cn2nnc(C(=O)NCc3cccs3)c2N)cc1 | 7.14%
16 | C=CCNC(=O)c1ccc2c(c1)nnn2C | 4.52%
17 | COc1ccc(N2CC(C(=O)Nc3nc4ccc(F)cc4s3)CC2=O)c(OC)c1 (stereo not shown) | -56.3%
18 | O=C(CCNc1ccc(Cl)c(C(F)(F)F)c1)c1ccco1 | -23.7%
19 | CN(CC(=O)Nc1c(Cl)cccc1Cl)C(=O)CNC(=O)c1ccc2c(c1)OCO2 | 6.07%
20 | Cc1ccc(NC(=O)CN(C)C(=O)C2CC(=O)N(Cc3ccccc3)C2)cc1 (stereo not shown) | -8.54%
21 | COc1cc(CNc2ccc(NC(C)=O)cc2)ccc1OCc1ccccc1C | -5.23%
22 | Cc1ccc(C(=O)N/N=C/C=C/c2ccccc2)cc1 | -3.39%
23 | COc1cc(C(=O)NC(=S)Nc2ccc3c(c2)OCO3)cc(OC)c1OC | 12.1%
24 | CCOc1ccc(C(C(=O)NC(C)(C)C)N(CCOC)C(=O)CCC(=O)Nc2ccccn2)cc1 (stereo not shown) | -5.95%
25 | COc1ccc(NC(=O)CCCCCN2C(=O)c3ccccc3C2=O)c(OC)c1 | -4.85%
26 | COc1cccc(N2C(=O)NC(=O)C3(Cc4cc(C)ccc4N(C)C3)C2=O)c1 (stereo not shown) | 20%
27 | Cc1cc(C)n(C(=O)CCC(=O)Nc2ccc(C)c(C)c2)n1 | 4.7%
28 | CC(C)c1ccc(N(CC(=O)NN=C2CCN(C)CC2)S(=O)(=O)c2ccccc2)cc1 | -6.39%

Row | SMILES | hERG current change (%, negative = inhibition) at 10uM
29 | CCn1c(=O)cc(SCC(=O)Nc2ccc(Cl)cc2)c2ccccc21 | 2.96%
30 | CCc1ccc(NC(=O)CSc2nc(O)cc(=O)n2C2CCCC2)cc1 | 18.2%
31 | CC(C#N)Sc1nc2ccccc2c(=O)n1-c1ccccc1 (stereo not shown) | 4.25%
32 | Cc1ccc2nc(C(F)(F)F)c(C#N)c(N)c2c1 | -0.558%
33 | COCCn1c(=O)[nH]c2cc(C(=O)NCCc3ccc(S(N)(=O)=O)cc3)ccc2c1=O | 23.7%
34 | COc1ccccc1Nc1nc(N)nc(CN2CCCCCC2)n1 | -57.7%
35 | COc1ccc(CNC(=O)c2cc3ccccc3oc2=O)cc1 | 18.6%
36 | O=c1c2ccccc2cnn1Cc1nnc(-c2cccs2)o1 | 14.2%
37 | CCCCNCCOCCSc1ccc(Cl)cc1.O=C(O)C(=O)O | -43.5%
38 | Brc1ccccc1-c1nnc(COc2cccc3cccnc23)o1 | 4.19%
39 | CCn1c(SCc2nc(-c3ccc(Cl)cc3)no2)nnc1-c1ccco1 | -62%
40 | COc1cc(/C=N/Nc2ccc(S(N)(=O)=O)cc2)cc(OC)c1OC | 14.6%
41 | O=C(NCc1cccnc1)c1cc(Sc2ccc(F)cc2F)nc2ccccc12 | -55.3%
42 | Cc1ccc(-c2cc(C(=O)Nc3ccc(S(=O)(=O)N4CC(C)OC(C)C4)cc3)[nH]n2)c(O)c1 (stereo not shown) | 18.3%
43 | CCN(CC)C(=O)c1[nH]cnc1C(=O)N[C@@H](CC(C)C)C(=O)OC(C)(C)C | -0.88%
44 | CC(C)NCC(O)COc1ccc(Br)cc1.Cl (stereo not shown) | -30.3%
45 | CCOC(=O)C(O)(c1ccc(N)c(OC)c1)C(F)(F)F (stereo not shown) | 2.17%
46 | CN(C(=O)CN1CCC(NC(=O)c2ccccc2Br)CC1)C1CCCCC1 | 1.21%
47 | O=C(CCc1ccc(S(=O)(=O)NC2CCCCC2)cc1)NCc1ccccn1 | 16.6%
48 | Cc1ccccc1NC(=O)COC(=O)C1C2CC3OC(=O)C1C3C2 (stereo not shown) | -8.23%
49 | O=C(Nc1nnc(C2=COCCO2)o1)c1ccc([N+](=O)[O-])s1 | -4.83%
50 | CN1CC(=O)N2[C@H](c3ccc4c(c3)OCO4)c3[nH]c4ccccc4c3C[C@@H]2C1=O | 4.73%
51 | CC(=O)Nc1ccc(C(=O)CSc2nnc(C)o2)cc1 | -0.917%
52 | Cc1ccc([C@@H]2[C@@H]3C(=O)N(c4ccccc4)C(=O)[C@@H]3[C@]3(C)C(=O)N(Cc4ccc(-c5ccccc5)cc4)CC(=O)N23)o1 | -3.86%
53 | CC(C)NC(=O)c1ccc(-c2cc(C(F)(F)F)ccc2Cl)o1 | 6.95%
54 | Cc1c(Cl)cccc1NC(=O)CSCC(N)=O | -10.1%
55 | CCCCn1c(=O)n(CC(=O)Nc2ccc(OC)c(Cl)c2)c(=O)c2c1nc(CO)n2CCC | -19.4%
